B1: TPR 5TU (parent)
chain: GGAUCUUCUCGAUCUAACAAAAAAGACAAAUCUGCCACAAAGCUUGAGAGCAUCUUCGGAUGCAGAGGCGGCAGCCUUCGGUGGCGCGAUAGCGCCAACGUUCUCAACUAUGACACGCAAAACGCGUGCUCCGUUGAAUGGAGUUUAUCAUG

Variants at the floor of the assay are shown more often than the library holds them.

In the data set the parent is B1. Briefly: polymerase ribozyme fitness, log enrichment relative to wild type (log ratio); higher = more active; in vitro selection for triplet polymerase activity. In outline: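 Genotype fitness is the logarithm of its enrichment divided by wild-type enrichment, using inverse-variance-weighted averages of replicates. That logarithm is base 2. Enrichment was measured by Illumina sequencing of input and output libraries from one triplicate in vitro selection round, with frozen incubation at −7 °C, on PCR-built, transcribed mutant libraries of each subunit of a heterodimeric triplet polymerase ribozyme, retaining genotypes with ≥10 input reads and ≥1 read per output.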
For A52G C93G, the “polymerase ribozyme fitness (log ratio)” value is -3.95. The figure for C51U A52G G65C C85A C87U A147U is no more than -4.2; for C51A G67U C96A it is no more than -4.2. The figure for C51A C63A G88U G126A is no more than -4.2; for C51A C96U it is -1.91. For A52G G58A G70C U90A C96A, the “polymerase ribozyme fitness (log ratio)” value is no more than -4.2.

Regarding A52C C96A C118G C125A, the “polymerase ribozyme fitness (log ratio)” value was -2.23.

As for A52C U53A G88C C95U U145C, the “polymerase ribozyme fitness (log ratio)” value was no more than -4.2. The figure for C51G A52G C76U U109G G143U U146G is no more than -4.2; for C51U G58C C75G it is no more than -4.2; for A52G C79A A120G it is no more than -4.2.

With A52C U53G C72U G83A G124A, the “polymerase ribozyme fitness (log ratio)” value is no more than -4.2. Next, A52G G58U C87U: -2; C51U C96U A122C U148G G152A: no more than -4.2; C51A G74U C85U U135A: no more than -4.2. For the variant C51U G86C, the “polymerase ribozyme fitness (log ratio)” value was -2.98.

On to A52C C57U U102G U146G, for which the “polymerase ribozyme fitness (log ratio)” value was no more than -4.2. Next, C51U G62C G70A A115U C116A: no more than -4.2; C51U U55A C75A C85U U101A C114U A115G G124A: no more than -4.2; A52C A66G C72A A97U C99A: no more than -4.2. Next, C51U U55A G83A U151A: no more than -4.2; A52C G67A G74U G86U C93U A115G: no more than -4.2; C51A G70A: no more than -4.2. Next, C51A G140C: -4.19; C51G U61G U148C: no more than -4.2.

Take C51G C85G C125U A137C: the “polymerase ribozyme fitness (log ratio)” value was no more than -4.2. The figure for A52G G80A C105G A107U is no more than -4.2; for A52C C79G G84C G94U G100U it is no more than -4.2; for A52G A73C G86U C95U G124A it is no more than -4.2.

Consider A52G C85A U90G A107C, for which the “polymerase ribozyme fitness (log ratio)” value is no more than -4.2.

Take C51U A52C C103A U139G: the “polymerase ribozyme fitness (log ratio)” value is no more than -4.2.

On to A52G G70C A91G, for which the “polymerase ribozyme fitness (log ratio)” value is no more than -4.2.

As for A52C G88U U101G C105U A107U C118A G143U, the “polymerase ribozyme fitness (log ratio)” value is no more than -4.2. The figure for C51A C87A is no more than -4.2; for A52C C85U it is -1.81; for A52C U55A G74U G88U G92U C105G A107G it is no more than -4.2. Regarding C51U C54G C85A A89C C103G C114A G133A, the “polymerase ribozyme fitness (log ratio)” value is no more than -4.2. In the case of A52C G88A, the “polymerase ribozyme fitness (log ratio)” value is -3.57. The figure for C51U U102G A120G G124A C149G is no more than -4.2; for C51A U82A A115C G117A it is no more than -4.2. As to C51A U55A G86U G88C A106G, the “polymerase ribozyme fitness (log ratio)” value was no more than -4.2. For the variant C51U G58C G62U C69U C96G, the “polymerase ribozyme fitness (log ratio)” value was -3.67. Next, A52C C57U C85U C93G U102G: no more than -4.2; A52C C57U C75U G86A A107G G126U: no more than -4.2. In the case of A52C C54U A73U G83C C95A C108A A137C, the “polymerase ribozyme fitness (log ratio)” value was no more than -4.2. Next, C51U A52C U55G U56C C114A: no more than -4.2; C51U C95A U104C C116G: -0.304; C51U A66G U82G G86A G94A U101G C132G: no more than -4.2. On to C51U G84C U101A A106C A120C C125A U135G, for which the “polymerase ribozyme fitness (log ratio)” value was no more than -4.2.

Turning to A52C A64U G71A G81A, the “polymerase ribozyme fitness (log ratio)” value is no more than -4.2. As to C51G U53C G67C G86U U101G A138U, the “polymerase ribozyme fitness (log ratio)” value is no more than -4.2.

On to A52C C54U C69A C95U A121G U127C, for which the “polymerase ribozyme fitness (log ratio)” value was no more than -4.2. Next, C51U U61C C76U G94C A121U C125G U145A: no more than -4.2; A52G C75G A91G U109G A113G: no more than -4.2; A52C U55G: -3.84. Next, C51G A91G: no more than -4.2; C51G A91U: no more than -4.2. With C51U U53A C99U G140U U144C, the “polymerase ribozyme fitness (log ratio)” value was no more than -4.2.

Regarding A52C G58C C85A, the “polymerase ribozyme fitness (log ratio)” value is -3.96. As to C51U G84A G117C U135A, the “polymerase ribozyme fitness (log ratio)” value is -0.541. On to A52C G68C C99U A115G, for which the “polymerase ribozyme fitness (log ratio)” value is no more than -4.2. As for C51U U53A A110C C116A, the “polymerase ribozyme fitness (log ratio)” value is no more than -4.2.

For A52C U53A C63G G65A C85U C95G U102C G117U, the “polymerase ribozyme fitness (log ratio)” value is no more than -4.2. The figure for A52C C54A A66G C96G is no more than -4.2; for C51U C96G C132A it is -3.26; for C51U C54G G74U C85G A97U it is no more than -4.2. With C51U C87A A120U G126A, the “polymerase ribozyme fitness (log ratio)” value was no more than -4.2.

As for A52G G71A C85G U109C U144C, the “polymerase ribozyme fitness (log ratio)” value was no more than -4.2. With A52C A60C U61A G88C A107U A137G, the “polymerase ribozyme fitness (log ratio)” value is no more than -4.2.

With C51U G74C G92C C149G, the “polymerase ribozyme fitness (log ratio)” value was no more than -4.2.

In the case of C51U C57U A66G G67C U102A, the “polymerase ribozyme fitness (log ratio)” value is no more than -4.2. The figure for A52G G70C U78G C93G G141C is no more than -4.2; for C51U A64U A66G G68A C87U C103G it is no more than -4.2; for A52C C87U it is -0.789. Consider A52C C63U A64U A107U, for which the “polymerase ribozyme fitness (log ratio)” value is no more than -4.2.

Consider C51U G86C G126A G143C, for which the “polymerase ribozyme fitness (log ratio)” value is no more than -4.2.

In the case of A52G A60C, the “polymerase ribozyme fitness (log ratio)” value is -1.96. Take C51U G59C C72A: the “polymerase ribozyme fitness (log ratio)” value was no more than -4.2. In the case of A52G C75G G126C A137C, the “polymerase ribozyme fitness (log ratio)” value was no more than -4.2. The figure for A52C C96G C99A U111A is no more than -4.2. The figure for C51A U56A C95A A98U is -1.46.

As to A52G G58C C99U, the “polymerase ribozyme fitness (log ratio)” value was -0.284. The figure for A52G A73U G94A U102G C103G A107U is no more than -4.2; for A52G C69G C85G A97U G126A G141U it is no more than -4.2.
